{
  "source": "paper PMC4336329",
  "about": "(PLoS ONE, 2015)",
  "note": "In all, about 310,000 compounds went through this assay and about 14,000 (4.5%) showed an effect of 50% or more. The effect is printed as a negative number. The list shows a part of the results.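 Further: peak tail current of the secondary pulse compared with the same well before compound.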",
  "data": [
    {"molecular_target": "human ether-à-go-go-related gene (hERG) potassium channel (human, UniProt Q12809)", "sequence (Q12809 whole entry, looked up)": "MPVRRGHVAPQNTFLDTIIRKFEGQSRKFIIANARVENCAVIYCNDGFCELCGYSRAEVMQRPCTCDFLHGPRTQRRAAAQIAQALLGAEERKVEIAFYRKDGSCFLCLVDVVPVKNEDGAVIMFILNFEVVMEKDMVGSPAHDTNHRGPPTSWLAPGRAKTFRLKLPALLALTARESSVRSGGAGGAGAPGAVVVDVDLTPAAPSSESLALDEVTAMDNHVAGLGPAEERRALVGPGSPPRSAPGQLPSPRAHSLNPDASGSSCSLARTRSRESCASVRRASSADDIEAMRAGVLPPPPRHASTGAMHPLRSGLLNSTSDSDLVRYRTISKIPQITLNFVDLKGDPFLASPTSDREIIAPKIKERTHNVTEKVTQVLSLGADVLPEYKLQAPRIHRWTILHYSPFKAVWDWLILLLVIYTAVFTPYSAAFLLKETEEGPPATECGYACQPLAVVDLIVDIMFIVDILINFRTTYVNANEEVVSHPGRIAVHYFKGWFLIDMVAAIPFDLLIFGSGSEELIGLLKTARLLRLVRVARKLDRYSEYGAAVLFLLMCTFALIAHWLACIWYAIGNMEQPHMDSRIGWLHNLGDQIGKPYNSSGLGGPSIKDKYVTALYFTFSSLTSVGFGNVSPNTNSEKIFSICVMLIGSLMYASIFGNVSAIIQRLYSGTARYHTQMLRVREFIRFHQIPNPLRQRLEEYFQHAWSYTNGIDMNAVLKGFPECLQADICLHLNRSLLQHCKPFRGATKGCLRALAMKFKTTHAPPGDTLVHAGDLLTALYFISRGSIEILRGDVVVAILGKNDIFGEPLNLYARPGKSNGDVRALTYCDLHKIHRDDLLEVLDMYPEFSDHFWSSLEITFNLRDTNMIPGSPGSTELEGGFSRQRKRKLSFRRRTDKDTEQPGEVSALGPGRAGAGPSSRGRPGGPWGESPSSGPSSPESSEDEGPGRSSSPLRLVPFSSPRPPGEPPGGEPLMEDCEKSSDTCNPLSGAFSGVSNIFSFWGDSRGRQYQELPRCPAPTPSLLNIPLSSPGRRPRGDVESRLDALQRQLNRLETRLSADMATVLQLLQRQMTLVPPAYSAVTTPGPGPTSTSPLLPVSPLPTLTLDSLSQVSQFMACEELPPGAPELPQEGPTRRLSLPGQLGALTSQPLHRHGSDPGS", "assay": "primary screen, population patch clamp on CHO cells stably expressing hERG", "units": {"hERG current change (%, negative = inhibition) at 10uM": "%"}, "values": [
      {"smiles": "Cc1cc2nc(C3CCN(CC4COc5ccccc5O4)CC3)[nH]c2cc1C", "note": "(stereo not shown)", "hERG current change (%, negative = inhibition) at 10uM": -73.9},
      {"smiles": "Cc1cc(C)c(NC(=O)CS(=O)CC(=O)NC2CCCc3ccccc32)c(C)c1", "note": "(stereo not shown)", "hERG current change (%, negative = inhibition) at 10uM": 13.6},
      {"smiles": "NC(=O)c1ncn([C@@H]2O[C@H](CO)[C@@H](O)[C@H]2O)c1O", "hERG current change (%, negative = inhibition) at 10uM": 0.565},
      {"smiles": "Cc1c(C)c2ccc(OCC(=O)Nc3nccs3)cc2oc1=O", "hERG current change (%, negative = inhibition) at 10uM": -20.2},
      {"smiles": "COc1ccc2nc(N(CCN(C)C)C(=O)c3ccc4ccccc4c3)sc2c1.Cl", "hERG current change (%, negative = inhibition) at 10uM": 5.4},
      {"smiles": "Cc1cc(NC(=O)c2ccc3c(c2)OCO3)ccc1NC(=O)c1ccccc1", "hERG current change (%, negative = inhibition) at 10uM": 19.1},
      {"smiles": "Cc1c(C(c2cc(O)ccc2Cl)c2c(C)n(C)n(-c3ccccc3)c2=O)c(=O)n(-c2ccccc2)n1C", "hERG current change (%, negative = inhibition) at 10uM": 7.78},
      {"smiles": "O=C(Nc1ccc2c(c1)ncn2C1CCCCC1)c1ccco1", "hERG current change (%, negative = inhibition) at 10uM": -15.1},
      {"smiles": "COc1cc(/C=C2\\C(=N)N3N=C(S(C)(=O)=O)SC3=NC2=O)ccc1OS(=O)(=O)c1ccc(C)cc1", "hERG current change (%, negative = inhibition) at 10uM": 6.9},
      {"smiles": "CCCOc1ccc(C(=O)N2CCN(c3ccc(N)cc3Cl)CC2)cc1", "hERG current change (%, negative = inhibition) at 10uM": -31.7},
      {"smiles": "Cc1cc(OCCCCCn2ccnc2)cc(C)c1Cl.Cl", "hERG current change (%, negative = inhibition) at 10uM": -19.2},
      {"smiles": "CCc1ccc(NC(=O)CN(c2ccc(OC)cc2)S(=O)(=O)c2c(C)[nH]c(=O)[nH]c2=O)cc1", "hERG current change (%, negative = inhibition) at 10uM": 9.73},
      {"smiles": "O=C(CN1C(=O)c2ccccc2S1(=O)=O)NCc1c(F)cccc1F", "hERG current change (%, negative = inhibition) at 10uM": 2.88},
      {"smiles": "CCOC(=O)N=Nc1c(O)n(CC(=O)OC)c2ccccc12", "hERG current change (%, negative = inhibition) at 10uM": 5.95},
      {"smiles": "CC(=O)c1cccc(NC(=O)c2ccc(NC(=O)CC3SC(N4CCCCC4)=NC3=O)cc2)c1", "note": "(stereo not shown)", "hERG current change (%, negative = inhibition) at 10uM": 10.3},
      {"smiles": "CCN1CCN(C(c2cccnc2)c2cc(Cl)c3cccnc3c2O)CC1", "note": "(stereo not shown)", "hERG current change (%, negative = inhibition) at 10uM": -72.4},
      {"smiles": "CCN1CCCC1CNc1ncnc2c1[nH]c1ccc(F)cc12", "note": "(stereo not shown)", "hERG current change (%, negative = inhibition) at 10uM": -76.6},
      {"smiles": "CN(C)CCNC(=O)/C(=C/c1ccc(-c2ccc(Cl)cc2Cl)o1)NC(=O)c1ccccc1", "hERG current change (%, negative = inhibition) at 10uM": -55.1},
      {"smiles": "O=C(Nc1nccs1)OCc1ccccc1", "hERG current change (%, negative = inhibition) at 10uM": 14.5},
      {"smiles": "Cc1ccc2nc(NC(=O)CN3CCN(c4ccccn4)CC3)sc2c1", "hERG current change (%, negative = inhibition) at 10uM": -9.91},
      {"smiles": "COc1cccc(OCc2cc(C(=O)NCCc3cccc(C)n3)no2)c1", "hERG current change (%, negative = inhibition) at 10uM": -1.21},
      {"smiles": "COC(=O)c1ccc(CN(c2ccccn2)S(=O)(=O)c2ccccc2)cc1", "hERG current change (%, negative = inhibition) at 10uM": 14.1},
      {"smiles": "CN1CCN(c2ccccc2NC(=O)c2ccccc2F)CC1", "hERG current change (%, negative = inhibition) at 10uM": -70.8},
      {"smiles": "CN(C)C(=O)/C(=C\\c1ccncc1)NC(=O)c1ccccc1", "hERG current change (%, negative = inhibition) at 10uM": 3.16},
      {"smiles": "O=C(NC1CCN(S(=O)(=O)c2ccc(F)cc2)CC1)C1CCCCC1", "hERG current change (%, negative = inhibition) at 10uM": 2.62},
      {"smiles": "COc1ccc(C2SCC(=O)Nc3c2c(C)nn3-c2ccccc2)cc1", "note": "(stereo not shown)", "hERG current change (%, negative = inhibition) at 10uM": -7.35},
      {"smiles": "NC1=NC(=O)C(Cc2cc(Cl)ccc2Cl)S1", "note": "(stereo not shown)", "hERG current change (%, negative = inhibition) at 10uM": 11.8},
      {"smiles": "C/C(=N\\NS(=O)(=O)c1cccc([N+](=O)[O-])c1)c1cc2ccccc2o1", "hERG current change (%, negative = inhibition) at 10uM": -2.61},
      {"smiles": "CCCC(C)C1(CC)C(=O)NC(=O)N=C1N", "note": "(stereo not shown)", "hERG current change (%, negative = inhibition) at 10uM": -76.5},
      {"smiles": "Cc1c(=O)n(OCc2ccccc2F)c2ccccc2[n+]1[O-]", "hERG current change (%, negative = inhibition) at 10uM": 9.08},
      {"smiles": "COc1cccc(-c2cc(C(F)(F)F)nc(-n3cc(C)cn3)n2)c1", "hERG current change (%, negative = inhibition) at 10uM": -15.3},
      {"smiles": "COc1ccc(Cl)cc1NC(=S)NCCc1ccc(F)cc1", "hERG current change (%, negative = inhibition) at 10uM": -2.21},
      {"smiles": "COc1ccc(C)cc1NC(=O)C1CCN(C(=O)c2ccco2)CC1", "hERG current change (%, negative = inhibition) at 10uM": 4.94},
      {"smiles": "O=S(=O)(Nc1ncn[nH]1)c1ccc(Cl)cc1", "hERG current change (%, negative = inhibition) at 10uM": 1.74},
      {"smiles": "O=C(c1cc(COc2ccc(F)cc2Cl)on1)N1CCc2ccccc2C1", "hERG current change (%, negative = inhibition) at 10uM": 14.4},
      {"smiles": "CCOc1ccc(C(=O)NCC(c2cccs2)N(C)C)cc1OCC", "note": "(stereo not shown)", "hERG current change (%, negative = inhibition) at 10uM": -45.6},
      {"smiles": "O=C(Nc1ccc(N2CCN(C(=O)C3CC3)CC2)cc1)c1cccs1", "hERG current change (%, negative = inhibition) at 10uM": 2.17},
      {"smiles": "CN(C)c1ccc(C(C(=O)NCC2CCCO2)N(Cc2ccccc2)C(=O)c2snc(C(N)=O)c2N)cc1", "note": "(stereo not shown)", "hERG current change (%, negative = inhibition) at 10uM": 18.9},
      {"smiles": "CCOc1ccc(OCC(=O)Nc2c3c(nn2C(C)(C)C)CS(=O)(=O)C3)cc1", "hERG current change (%, negative = inhibition) at 10uM": 0.297},
      {"smiles": "CC(C)(C)C(=O)Nc1ccc(C(=O)CN2C(=O)NC3(CCOc4ccccc43)C2=O)cc1", "note": "(stereo not shown)", "hERG current change (%, negative = inhibition) at 10uM": -11.6},
      {"smiles": "Cc1cccc(CCNCc2c(C(=O)O)c(C)n(-c3ccccc3)c2C)c1", "hERG current change (%, negative = inhibition) at 10uM": 4.31},
      {"smiles": "COc1ccc(C(O)P(=O)(O)CCc2ccccc2)cc1", "note": "(stereo not shown)", "hERG current change (%, negative = inhibition) at 10uM": -2.85},
      {"smiles": "CC(C)(C)c1ccc(C(=O)Nc2ccc(Cl)cc2)cc1", "hERG current change (%, negative = inhibition) at 10uM": -3.08},
      {"smiles": "Cl.c1ccc2c(CN3CCOCC3)csc2c1", "hERG current change (%, negative = inhibition) at 10uM": 9.52},
      {"smiles": "Cc1ccnc(NS(=O)(=O)c2ccc(NS(=O)(=O)c3cc(Cl)ccc3Cl)cc2)n1", "hERG current change (%, negative = inhibition) at 10uM": 4.09},
      {"smiles": "COc1ccc(-c2cc(C(=O)N3CCCC(C(F)(F)F)C3)c3ccccc3n2)cc1OC", "note": "(stereo not shown)", "hERG current change (%, negative = inhibition) at 10uM": -9.42},
      {"smiles": "COc1ccc(NS(=O)(=O)c2cc(Br)cc3c2N(C(C)=O)CC3)cc1", "hERG current change (%, negative = inhibition) at 10uM": 33},
      {"smiles": "CCN1C(=O)/C(=C/c2ccc(N3CCCC3)cc2)NC1=S", "hERG current change (%, negative = inhibition) at 10uM": -4.28},
      {"smiles": "CC(C#N)Sc1ccc(S(=O)(=O)N2CCCC2)cn1", "note": "(stereo not shown)", "hERG current change (%, negative = inhibition) at 10uM": -14},
      {"smiles": "CC(=O)Nc1cccc(NS(=O)(=O)c2ccccc2[N+](=O)[O-])c1", "hERG current change (%, negative = inhibition) at 10uM": 11.9},
      {"smiles": "COc1cccc(C2=NOC(C(=O)NCCCn3ccnc3)C2)c1", "note": "(stereo not shown)", "hERG current change (%, negative = inhibition) at 10uM": 4.03},
      {"smiles": "COC(=O)Oc1ccc(/C=N/NC(=O)CN(c2ccccc2Br)S(C)(=O)=O)cc1OC", "hERG current change (%, negative = inhibition) at 10uM": -48.3},
      {"smiles": "Nc1nc(CN2CCN(c3ccccc3F)CC2)nc(N2CCCc3ccccc32)n1", "hERG current change (%, negative = inhibition) at 10uM": -11.7},
      {"smiles": "CCCC(=O)Nc1ccccc1-c1nnc(SC)[nH]c1=O", "hERG current change (%, negative = inhibition) at 10uM": -1.26},
      {"smiles": "COC(=O)c1ccc(CSc2nc3ccccc3c(=O)n2-c2ccc(OC)c(OC)c2)o1", "hERG current change (%, negative = inhibition) at 10uM": 11.9}
    ]}
  ]
}
